Measured values from the supplement of paper PMC10037445.
Over roughly 2,900 compounds, “NF-kB SEAP reporter activity, fold change vs agonist alone” has its median near 0.99; the highest 2% begin near 2.6. The list shows a part of the results.

Legend:
RAW-Dual [1] = assay: NF-kB SEAP reporter activity, fold change vs agonist alone; cytotoxicity flag (confluency mask): not cytotoxic; higher = enhanced NF-kB activity
Outline: (§1)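 Library stock was pin-tooled at 50 nL into 384-well plates of RAW-Dual macrophages (50,000 cells/well, DMEM), followed 1 h later by a PRR agonist, and the cells were kept at 37 °C, 5% CO2. Supernatant collected after 20 hours was read for IRF by QuantiLuc luminescence and for NF-κB by QuantiBlue absorbance at 620 nm. Reporter activity is fold change over agonist-alone wells, and a well counted as cytotoxic when its IncuCyte confluency was below 70% of agonist controls in both mask sets.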

RAW-Dual [2] = assay: NF-kB SEAP reporter activity, fold change vs agonist alone; higher = enhanced NF-kB activity; conditions: library stock concentration (final ~1000-fold dilution): 10 mM, cytotoxicity flag (confluency mask): not cytotoxic
Outline: as §1

[3] = agonist: ODN 1826 (TLR9) 0.5 ug/mL
[4] = agonist: Pam2CSK4 (TLR2/6) 0.1 ug/mL
[5] = agonist: Pam3CSK4 (TLR2/1) 0.1 ug/mL

Compound	NF-kB SEAP reporter activity (RAW-Dual [1]; agonist: LPS (TLR4) 0.1 ug/mL)	NF-kB SEAP reporter activity (RAW-Dual [1]; [3])	NF-kB SEAP reporter activity (RAW-Dual [1]; [4])	NF-kB SEAP reporter activity (RAW-Dual [1]; [5])	NF-kB SEAP reporter activity (RAW-Dual [2]; agonist: Imiquimod (TLR7) […])	NF-kB SEAP reporter activity (RAW-Dual [2]; agonist: MPLA (TLR4) […])
O=[N+]([O-])c1ccc2c(c1)S(=O)(=O)C=C2 (library stock concentration (final ~1000-fold dilution): 10 mM)	0.192	0.17	0.0667	0.127		
O=[N+]([O-])c1ccc2c(c1)S(=O)(=O)C=C2					0.217	0.231
CC(=O)NC(CS)C(=O)O (stereo not given)					1.01	1.24
CC(=O)NC(CS)C(=O)O (stereo not given) (library stock concentration (final ~1000-fold dilution): 10 mM)	1.37	1.13	1.13	1.28		
COc1cc2c(c(O)c1OC)-c1c(cc(OC)c(OC)c1OC)CC(C)C(C)C2 (stereo not given)					1.01	1.21
COc1cc2c(c(O)c1OC)-c1c(cc(OC)c(OC)c1OC)CC(C)C(C)C2 (stereo not given) (library stock concentration (final ~1000-fold dilution): 10 mM)	1.15	0.876	0.82	1.02		
CCC(=O)N1CCC(Nc2ncnc3c2CN(c2cnc(OC)c(C(F)(F)F)c2)CC3)C1 (stereo not given) (library stock concentration (final ~1000-fold dilution): 10 mM)	1.49	1.08	0.957	1.28		
CCC(=O)N1CCC(Nc2ncnc3c2CN(c2cnc(OC)c(C(F)(F)F)c2)CC3)C1 (stereo not given)					1.1	1.13
COc1ccc(S(=O)(=O)NCc2ccc(C(=O)NCCc3ccc(Cl)cn3)cc2)cc1					0.318	1.19
COc1ccc(S(=O)(=O)NCc2ccc(C(=O)NCCc3ccc(Cl)cn3)cc2)cc1 (library stock concentration (final ~1000-fold dilution): 10 mM)	1.36	1.15	0.849	1.49		
COc1nc(N)nc2c1ncn2C1OC(CO)C(O)C1O (stereo not given) (library stock concentration (final ~1000-fold dilution): 10 mM)	1.43	0.996	1.08	1.23		
COc1nc(N)nc2c1ncn2C1OC(CO)C(O)C1O (stereo not given)					0.924	0.994
COc1cc2c(cc1OC)CN(CCc1ccc(NC(=O)c3cc(OC)c(OC)cc3NC(=O)c3cnc4ccccc4c3)cc1)CC2 (library stock concentration (final ~1000-fold dilution): 10 mM)	1.34	1.45	1.25	1.19		
